Reference: the antibiotic and cytotoxicity screens of Wong et al. (2023)
The list shows a part of the results.

How the values were obtained:
HSkMC = human skeletal muscle cells; experiment: cytotoxicity call (relative viability < 0.9); conditions: 10 µM
HepG2 = experiment: cytotoxicity call (relative viability < 0.9); conditions: 10 µM
S. aureus RN4220 = experiment: growth inhibition call (relative growth <= 0.2); conditions: 50 µM

Row | SMILES | cytotoxicity call (HSkMC) | cytotoxicity call (HepG2) | growth inhibition call (S. aureus RN4220)
1 | CCOP(=O)(CC(=O)O[C@H]1[C@H](OC(=O)Nc2ccccc2-c2ccccc2)[C@H](OC(=O)Nc2ccccc2-c2ccccc2)[C@@H](OC)O[C@@H]1COC(=O)NCCCCCC(=O)NO)OCC | inactive | active | inactive
2 | C[C@@H]1CN([C@H](C)CO)C(=O)Cc2cc(NC(=O)CCCN(C)C)ccc2O[C@H]1CN(C)S(=O)(=O)c1cccs1 | inactive | inactive | inactive
3 | C[C@@H](O)C#Cc1ccc2c(c1)O[C@H](CN(C)C(=O)Cc1ccccn1)[C@@H](C)CN([C@@H](C)CO)S2(=O)=O | inactive | inactive | inactive
4 | CCCCCCCCCCCCCCCC[N+](C)(C)C | active | active | inactive
5 | C[C@@H]1CCCCO[C@H](CN(C)C(=O)NC2CCCCC2)[C@@H](C)CN([C@H](C)CO)C(=O)c2cc(NC(=O)CCCCCC(=O)Nc3ccccc3N)ccc2O1 | inactive | inactive | inactive
6 | C[C@@H]1CCCCO[C@@H](CN(C)Cc2ccc(C(=O)Nc3ccccc3N)cc2)[C@@H](C)CN([C@H](C)CO)C(=O)c2cc(NC(=O)NC3CCCCC3)ccc2O1 | inactive | inactive | inactive
7 | C[C@@H]1CCCCO[C@@H](CN(C)C(=O)Nc2ccc(C(F)(F)F)cc2)[C@@H](C)CN([C@H](C)CO)C(=O)c2cc(NS(=O)(=O)c3cccs3)ccc2O1 | inactive | inactive | inactive
8 | C[C@@H]1CN([C@H](C)CO)C(=O)c2cc(NC(=O)NC3CCCCC3)ccc2O[C@H]1CN(C)S(C)(=O)=O | inactive | inactive | inactive
9 | C[C@H]1CCCCO[C@H](CN(C)C(=O)Nc2ccc(F)cc2)[C@@H](C)CN([C@@H](C)CO)C(=O)c2cc(NC(=O)CCC(F)(F)F)ccc2O1 | inactive | inactive | inactive
10 | C[C@@H]1CN([C@H](C)CO)S(=O)(=O)c2ccc(C#CC3(O)CCCC3)cc2O[C@H]1CN(C)C(=O)Cc1ccncc1 | inactive | inactive | inactive
11 | C[C@@H]1CN([C@@H](C)CO)C(=O)Cc2cc(NS(=O)(=O)c3ccc(Cl)cc3)ccc2O[C@H]1CN(C)C(=O)Nc1ccc(C(F)(F)F)cc1 | inactive | inactive | inactive
12 | NCCc1c(C(=O)O)[nH]c2ccc(Br)cc12 | inactive | inactive | inactive
13 | Cc1ccccc1S(=O)(=O)N1C[C@H](O)COC[C@H]2O[C@@H](CC(=O)NCc3ccccc3Cl)CC[C@@H]21 | inactive | inactive | inactive
14 | CCCCCCCC(=O)OCC(COC(=O)CCCCCCC)OC(=O)CCCCCCC | inactive | inactive | inactive
15 | C[C@@H]1CN([C@H](C)CO)C(=O)c2cc(NC(=O)C3CC3)ccc2O[C@@H]1CN(C)S(=O)(=O)c1ccccc1 | inactive | inactive | inactive
16 | C[C@@H]1CCCCO[C@@H](CN(C)C(=O)Cc2ccccc2)[C@@H](C)CN([C@H](C)CO)C(=O)c2cc(NC(=O)c3ccccc3)ccc2O1 | inactive | inactive | inactive
17 | CCc1nc2ccc(C(=O)NCCc3ccccn3)cn2c1N(CC)Cc1cccc(Br)c1 | inactive | inactive | inactive
18 | CC(C)N(C)Cc1nnc2n1CCN(CCO)C2 | inactive | inactive | inactive
19 | Cc1cc2nc3ccc(N(C)C)cc3[s+]c2cc1N.[Cl-] | active | active | inactive
20 | COc1ccc(NC(=O)Nc2ccc3c(c2)CC(=O)N([C@@H](C)CO)C[C@@H](C)[C@H](CN(C)Cc2ccc(-c4ccccc4)cc2)O3)cc1 | inactive | active | inactive

Row | SMILES | cytotoxicity call (HSkMC) | cytotoxicity call (HepG2) | growth inhibition call (S. aureus RN4220)
21 | Cc1ccc(S(=O)(=O)Nc2ccc3c(c2)C(=O)N([C@@H](C)CO)C[C@@H](C)[C@@H](CN(C)C(=O)C2CCCCC2)OCCCC[C@@H](C)O3)cc1 | inactive | inactive | inactive
22 | C[C@@H]1CN([C@H](C)CO)C(=O)c2cccc(NS(C)(=O)=O)c2O[C@@H]1CN(C)S(=O)(=O)c1ccccc1 | inactive | inactive | inactive
23 | C[C@H]1CN([C@@H](C)CO)C(=O)c2cc(NC(=O)Cc3ccccc3)ccc2O[C@@H]1CN(C)S(=O)(=O)c1cn(C)cn1 | inactive | inactive | inactive
24 | CC(C)NC(=O)N(C)C[C@@H]1OCCCC[C@@H](C)Oc2ccc(NC(=O)Nc3ccccc3)cc2C(=O)N([C@@H](C)CO)C[C@@H]1C | inactive | inactive | inactive
25 | C[C@H]1CCCCO[C@H](CN(C)CC2CC2)[C@@H](C)CN([C@@H](C)CO)C(=O)c2cc(NS(C)(=O)=O)ccc2O1 | inactive | inactive | inactive
26 | COc1ccc(NC(=O)N(C)C[C@H]2OCCCC[C@H](C)Oc3ccc(NC(=O)C4CCCCC4)cc3C(=O)N([C@@H](C)CO)C[C@H]2C)cc1 | inactive | inactive | inactive
27 | CCOC(=O)c1c(C)cc(OC)cc1O | inactive | active | inactive
28 | c1ccc(Nc2nc(-c3ccccc3)nc3ccccc23)cc1 | inactive | inactive | inactive
29 | C[C@H]1CN([C@@H](C)CO)C(=O)c2ccccc2-c2ccccc2CO[C@H]1CN(C)Cc1ccc(Cl)c(Cl)c1 | active | inactive | inactive
30 | COc1ccc(S(=O)(=O)N[C@@H]2CC[C@H](CCNC(=O)CN3CCOCC3)O[C@@H]2CO)cc1 | inactive | inactive | inactive
31 | O=C(NCCC1=CCCCC1)c1sc2ccccc2c1Cl | inactive | inactive | inactive
32 | C=CCNC(=O)[C@@H]1[C@H]2C(=O)O[C@H](c3ccccc3)[C@H](c3ccccc3)N2[C@H](c2ccc(O)cc2)[C@@]12C(=O)Nc1ccc(C#CC3=CCCCC3)cc12 | inactive | inactive | inactive
33 | COc1ccc(OC)c([C@@H](O)CNC(=O)CN)c1 | inactive | inactive | inactive
34 | COc1ccccc1CNC(=O)C[C@H]1C[C@@H]2c3cc(NC(=O)NC4CCCC4)ccc3O[C@@H]2[C@@H](CO)O1 | inactive | inactive | inactive
35 | CCS(=O)(=O)N1C[C@]2(C1)CN([C@H](CO)c1c2c2ccc(cc2n1C)OC)C(=O)Nc1c(noc1C)C | inactive | inactive | inactive
36 | C[C@H](CO)N1C[C@H](C)[C@H](CN(C)Cc2ccc(-c3ccccc3)cc2)Oc2c(NC(=O)C3CCOCC3)cccc2C1=O | inactive | inactive | inactive
37 | C[C@@H]1CCCCO[C@H](CN(C)Cc2ccncc2)[C@H](C)CN([C@@H](C)CO)C(=O)c2cc(NC(=O)Nc3ccccc3)ccc2O1 | inactive | inactive | inactive
38 | C[C@@H]1CCCCO[C@@H](CN(C)C(=O)Nc2cccc3ccccc23)[C@@H](C)CN([C@H](C)CO)C(=O)c2cc(N(C)C)ccc2O1 | inactive | inactive | inactive
39 | O=C(C[C@@H]1C[C@H]2c3cc(NC(=O)Nc4ccccc4)ccc3O[C@H]2[C@@H](CO)O1)NCCN1CCCCC1 | inactive | inactive | inactive
40 | C[C@H](CO)N1C[C@H](C)[C@@H](CN(C)C(=O)Nc2ccc3c(c2)OCO3)OCCCC[C@H](C)Oc2ccc(NS(=O)(=O)c3cccs3)cc2C1=O | inactive | inactive | inactive

Row | SMILES | cytotoxicity call (HSkMC) | cytotoxicity call (HepG2) | growth inhibition call (S. aureus RN4220)
41 | COc1ccc(NC(=O)Nc2ccc3c(c2)C(=O)N([C@@H](C)CO)C[C@@H](C)[C@@H](CN(C)C(=O)Nc2ccc(OC)cc2)OCCCC[C@@H](C)O3)cc1 | inactive | inactive | inactive
42 | COc1ccc(OCC(=O)NCC(=O)O)cc1 | inactive | inactive | inactive
43 | O=C(O)C[C@H]1Oc2ccccc2NC1=O | inactive | inactive | inactive
44 | CC(C)(C)C(=O)C[n+]1cccc(C(N)=O)c1 | inactive | inactive | inactive
45 | Cc1nc2n(c(=O)c1CCN1CCC(c3noc4cc(F)ccc34)CC1)CCCC2 | inactive | inactive | inactive
46 | CC(C)NC(=O)N(C)C[C@@H]1Oc2ccc(NC(=O)CCN3CCOCC3)cc2CC(=O)N([C@@H](C)CO)C[C@H]1C | inactive | inactive | inactive
47 | Cc1cc(-c2ccccc2)nnc1NCCN1CCOCC1.Cl.Cl | inactive | inactive | inactive
48 | CC(C)NC(=O)Nc1ccc2c(c1)C(=O)N([C@H](C)CO)C[C@H](C)[C@H](CN(C)S(=O)(=O)c1cn(C)cn1)OCCCC[C@@H](C)O2 | inactive | inactive | inactive
49 | Cc1noc(C)c1NC(=O)Nc1ccc2c(c1)C(=O)N([C@H](C)CO)C[C@@H](C)[C@H](CN(C)S(=O)(=O)c1ccc(F)cc1)OCCCC[C@H](C)O2 | inactive | inactive | inactive
50 | C[n+]1cccc(C(=O)NO)c1 | inactive | inactive | inactive
51 | COc1ccc(S(=O)(=O)N(C)C[C@H]2OCCCC[C@H](C)Oc3ccc(NC(=O)c4ccccc4)cc3C(=O)N([C@H](C)CO)C[C@@H]2C)cc1 | inactive | inactive | inactive
52 | Cl.[NaH] | inactive | inactive | inactive
53 | COCC(=O)N(C)C[C@H]1Oc2cc(C#C[C@H](C)O)ccc2S(=O)(=O)N([C@H](C)CO)C[C@@H]1C | inactive | inactive | inactive
54 | CC(C)C#Cc1ccc2c(c1)O[C@@H](CN(C)C(=O)c1cnccn1)[C@H](C)CN([C@@H](C)CO)S2(=O)=O | inactive | inactive | inactive
55 | C[C@H]1CN([C@@H](C)CO)C(=O)c2c(c3ccccc3n2C)-c2ccccc2CO[C@H]1CN(C)Cc1ccc(-c2ccccc2)cc1 | inactive | inactive | inactive
56 | C[C@H](CO)N1C[C@H](C)[C@H](CN(C)C(=O)Nc2ccc(C(F)(F)F)cc2)Oc2ccc(NC(=O)CCC(F)(F)F)cc2CC1=O | inactive | inactive | inactive
57 | O=C(OOC(=O)c1ccccc1)c1ccccc1 | inactive | active | inactive
58 | C[C@@H]1CN([C@H](C)CO)C(=O)Cc2cc(NC(=O)Nc3cccc4ccccc34)ccc2O[C@H]1CN(C)S(=O)(=O)c1cccs1 | inactive | inactive | inactive
